# The list shows a part of the results.
# Legend:
# Test in all cases: glycan array binding signal (z-score within array); higher = stronger binding
# Settings in all cases: glycan notation: IUPAC condensed, linker removed
# [1] = biological target: Man(a1-3)[Man(a1-6)]Man(a1-6)[Man(a1-3)]Man(b1-4)GlcNAc(b1-4)GlcNAc
# Method in brief: (§1)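 Glycan array data came from 3228 arrays in the Consortium for Functional Glycomics database, and only arrays with an available protein sequence were kept. Glycan names were put into IUPAC-condensed notation, and columns mapping to the same glycan were averaged. The binding signal is a within-array Z-score, averaged across arrays of one protein sequence run at different concentrations or buffers and across linkers. A negative Z-score can be read as non-binding.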
# [2] = biological target: Man(a1-3)[Man(a1-6)]Man(b1-4)GlcNAc(b1-4)GlcNAc
# Method in brief: as §1
# [3] = biological target: Man(a1-3)[Man(a1-6)]Man(b1-4)GlcNAc(b1-4)[Fuc(a1-6)]GlcNAc
# Method in brief: as §1
# [4] = biological target: Man(a1-6)Man
# Method in brief: as §1
# [5] = biological target: Man(b1-4)GlcNAc
# Method in brief: as §1
# [6] = biological target: MurNAc(b1-4)GlcNAc
# Method in brief: as §1
# [7] = biological target: Neu5Ac(a2-3)Gal
# Method in brief: as §1
# [8] = biological target: Neu5Ac(a2-3)Gal(b1-3)GalNAc
# Method in brief: as §1
# [9] = biological target: Neu5Ac(a2-3)Gal(b1-3)GalNAc(b1-3)Gal(a1-4)Gal(b1-4)Glc
# Method in brief: as §1
# [10] = biological target: Neu5Ac(a2-3)Gal(b1-3)GalNAc(b1-4)[Neu5Ac(a2-3)]Gal(b1-4)Glc
# Method in brief: as §1
# [11] = biological target: Neu5Ac(a2-3)Gal(b1-3)GalNAc(b1-4)[Neu5Ac(a2-8)Neu5Ac(a2-3)]Gal(b1-4)Glc
# Method in brief: as §1
# [12] = biological target: Neu5Ac(a2-3)Gal(b1-3)GalNAc6S
# Method in brief: as §1
# [13] = biological target: Neu5Ac(a2-3)Gal(b1-3)GlcNAc
# Method in brief: as §1
# [14] = biological target: Neu5Ac(a2-3)Gal(b1-3)GlcNAc(b1-2)Man
# Method in brief: as §1
# [15] = biological target: Neu5Ac(a2-3)Gal(b1-3)GlcNAc(b1-2)Man(a1-3)[GlcNAc(b1-4)][Neu5Ac(a2-3)Gal(b1-3)GlcNAc(b1-2)Man(a1-6)]Man(b1-4)GlcNAc(b1-4)GlcNAc
# Method in brief: as §1
# [16] = biological target: Neu5Ac(a2-3)Gal(b1-3)GlcNAc(b1-2)Man(a1-3)[Neu5Ac(a2-3)Gal(b1-3)GlcNAc(b1-2)Man(a1-6)]Man(b1-4)GlcNAc(b1-4)GlcNAc
# Method in brief: as §1
# [17] = biological target: Neu5Ac(a2-3)Gal(b1-3)GlcNAc(b1-3)Gal(b1-3)GlcNAc
# Method in brief: as §1
# [18] = biological target: Neu5Ac(a2-3)Gal(b1-3)GlcNAc(b1-3)Gal(b1-4)GlcNAc
# Method in brief: as §1
# [19] = biological target: Neu5Ac(a2-3)Gal(b1-3)GlcNAc(b1-3)GalNAc
# Method in brief: as §1
# [20] = biological target: Neu5Ac(a2-3)Gal(b1-3)GlcNAc(b1-4)Gal(b1-4)Glc
# Method in brief: as §1
# [21] = biological target: Neu5Ac(a2-3)Gal(b1-3)GlcNAc(b1-6)GalNAc
# Method in brief: as §1
# [22] = biological target: Neu5Ac(a2-3)Gal(b1-3)GlcNAc6S
# Method in brief: as §1
# [23] = biological target: Neu5Ac(a2-3)Gal(b1-3)[Fuc(a1-4)]GlcNAc
# Method in brief: as §1
# [24] = biological target: Neu5Ac(a2-3)Gal(b1-3)[Fuc(a1-4)]GlcNAc(b1-3)Gal(b1-3)[Fuc(a1-4)]GlcNAc
# Method in brief: as §1
# [25] = biological target: Neu5Ac(a2-3)Gal(b1-3)[Fuc(a1-4)]GlcNAc(b1-3)Gal(b1-4)[Fuc(a1-3)]GlcNAc
# Method in brief: as §1
# [26] = biological target: Neu5Ac(a2-3)Gal(b1-3)[GlcNAc(b1-6)]GalNAc
# Method in brief: as §1
# [27] = biological target: Neu5Ac(a2-3)Gal(b1-3)[Neu5Ac(a2-3)Gal(b1-4)]GlcNAc
# Method in brief: as §1
# [28] = biological target: Neu5Ac(a2-3)Gal(b1-3)[Neu5Ac(a2-6)]GalNAc
# Method in brief: as §1
# [29] = biological target: Neu5Ac(a2-3)Gal(b1-3)[Neu5Ac(a2-6)]GlcNAc(b1-3)[Fuc(a1-3)[Gal(b1-4)]GlcNAc(b1-6)]Gal(b1-4)Glc
# Method in brief: as §1
# [30] = biological target: Neu5Ac(a2-3)Gal(b1-3)]Neu5Ac(a2-3)Gal(b1-4)]GlcNAc
# Method in brief: as §1
# [31] = biological target: Neu5Ac(a2-3)Gal(b1-4)Glc
# Method in brief: as §1
# [32] = biological target: Neu5Ac(a2-3)Gal(b1-4)GlcNAc
# Method in brief: as §1
# [33] = biological target: Neu5Ac(a2-3)Gal(b1-4)GlcNAc(b1-2)Man
# Method in brief: as §1
# [34] = biological target: Neu5Ac(a2-3)Gal(b1-4)GlcNAc(b1-2)Man(a1-3)[GlcNAc(b1-2)Man(b1-4)GlcNAc(b1-2)Man(a1-6)]Man(b1-4)GlcNAc(b1-4)GlcNAc
# Method in brief: as §1
# [35] = biological target: Neu5Ac(a2-3)Gal(b1-4)GlcNAc(b1-2)Man(a1-3)[GlcNAc(b1-4)][Neu5Ac(a2-3)Gal(b1-4)GlcNAc(b1-2)Man(a1-6)]Man(b1-4)GlcNAc(b1-4)GlcNAc
# Method in brief: as §1
# [36] = biological target: Neu5Ac(a2-3)Gal(b1-4)GlcNAc(b1-2)Man(a1-3)[Neu5Ac(a2-3)Gal(b1-4)GlcNAc(b1-2)Man(a1-6)]Man(b1-4)GlcNAc(b1-4)GlcNAc
# Method in brief: as §1
binder,measurement,setting,value
OrysaEULS2 (Oryza sativa) (protein) MVYCRANPNYAMTARNGAVVLAPANPKDEYQHWIKDMRWSTSIKDEEGYPAFALVNKATGQAIKHSLGQSHPVRLVPYNPEVMDESVLWTESRDVGNGFRCIRMVNNIYLNFDAFHGDKYHGGVRDGTDIVLWKWCEGDNQRWKIQPYYILEQKLISEEDLNSAVDHHHHHH,glycan array binding signal (z-score),[1],4.45
same,glycan array binding signal (z-score),[2],12.5
same,glycan array binding signal (z-score),[3],1.44
same,glycan array binding signal (z-score),[4],0.33
same,glycan array binding signal (z-score),[5],-0.199
same,glycan array binding signal (z-score),[6],-0.26
same,glycan array binding signal (z-score),[7],-0.202
same,glycan array binding signal (z-score),[8],-0.192
same,glycan array binding signal (z-score),[9],-0.195
same,glycan array binding signal (z-score),[10],-0.199
same,glycan array binding signal (z-score),[11],-0.205
same,glycan array binding signal (z-score),[12],-0.174
same,glycan array binding signal (z-score),[13],-0.189
same,glycan array binding signal (z-score),[14],-0.31
same,glycan array binding signal (z-score),[15],-0.181
same,glycan array binding signal (z-score),[16],-0.152
same,glycan array binding signal (z-score),[17],-0.211
same,glycan array binding signal (z-score),[18],-0.2
same,glycan array binding signal (z-score),[19],-0.195
same,glycan array binding signal (z-score),[20],-0.24
same,glycan array binding signal (z-score),[21],-0.202
same,glycan array binding signal (z-score),[22],-0.191
same,glycan array binding signal (z-score),[23],-0.222
same,glycan array binding signal (z-score),[24],-0.21
same,glycan array binding signal (z-score),[25],-0.152
same,glycan array binding signal (z-score),[26],-0.241
same,glycan array binding signal (z-score),[27],-0.182
same,glycan array binding signal (z-score),[28],-0.172
same,glycan array binding signal (z-score),[29],-0.216
same,glycan array binding signal (z-score),[30],-0.248
same,glycan array binding signal (z-score),[31],-0.193
same,glycan array binding signal (z-score),[32],-0.193
same,glycan array binding signal (z-score),[33],-0.152
same,glycan array binding signal (z-score),[34],0.355
same,glycan array binding signal (z-score),[35],-0.219
same,glycan array binding signal (z-score),[36],0.557

# Source: the supplement of paper PMC8728848
